This is an account of results in patent US20050089932A1, “Novel proteins with targeted binding” (Avidia Research Institute, priority 2001, published 2005).

For one assay, the system named is human PBMC. The experiment in a line: PBMC assay on human cells. It counts as cell-based.
A further assay relates to monkey PBMC. The assay is described as follows: PBMC assay on monkey cells. It counts as cell-based, cynomolgus monkeys.
Assay [1] addresses T1, human IgE (Homo sapiens, UniProt P01854). The assay is described as follows: ELISA rank of IgE dimer clones displayed on phage. It counts as binding. The following applies: thirty-two clones ranked. (In general: An ELISA detects its analyte on a solid surface through an enzyme-linked reagent.)
The target of assay [2] is T1, human IgE. The experiment in a line: Biacore affinity measurements on immobilized human IgE. The following applies: IgE on CM5 chip. It counts as binding. A general note: SPR reads the build-up and loss of mass on a sensor chip optically.

T1 sequence (P01854 1-427 limits assumed): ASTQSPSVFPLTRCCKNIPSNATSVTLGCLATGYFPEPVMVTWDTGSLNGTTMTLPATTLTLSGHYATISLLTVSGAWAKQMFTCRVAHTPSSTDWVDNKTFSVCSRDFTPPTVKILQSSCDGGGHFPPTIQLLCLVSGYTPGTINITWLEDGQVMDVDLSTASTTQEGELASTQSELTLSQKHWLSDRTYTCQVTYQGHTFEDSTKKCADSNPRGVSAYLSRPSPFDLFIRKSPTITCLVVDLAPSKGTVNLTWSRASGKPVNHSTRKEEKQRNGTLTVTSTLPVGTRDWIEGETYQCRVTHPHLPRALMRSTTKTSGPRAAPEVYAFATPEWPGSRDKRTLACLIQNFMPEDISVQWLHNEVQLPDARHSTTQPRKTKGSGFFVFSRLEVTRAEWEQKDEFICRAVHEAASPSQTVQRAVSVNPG

B1: CD28 7: CD28 dimer, sequence >CD28-A7 (protein)
chain: CGPGRFQCESGQCIPATWVCDGENDCVDDSDEKSCATTAPTCGSGQFRCSNGNCLPLRLGCDGVDDCGDSSDEPLDPCAATVRT
Regarding B1, the inhibition result in the assay on human PBMC was “inhibition = 82%”; with monkey PBMC, “inhibition = 54%”.

B2: IgE-1.1: heterodimer of IgE-1 and a novel domain, with a C-terminal domain (protein)
chain: CPANEFQCRNSSTCIPRRWLCDGDDDCGDGSDETGCSAPASEPPGSLCQPDQFRCSSGRCLSREWLCDGEDDCEDDSDETDCPTRTSLQ
modifications: IgE-binding walked dimer 1, selected dimer IgE-1.1
notes: heterodimer of IgE-1 and a novel domain, with a C-terminal domain
With B2, the “relative affinity by ELISA binding rank” value in the assay with human IgE [1] is “high affinity”.

B3: IgE-1.23.23: IgE-binding multimer built from the heterodimer clones (protein)
chain: CPAGQFRCENGRCLPPPWRCDGVNDCEDNSDEAGCGDSHILPFSTPGPSTCPANEFQCRNSSTCIPRRWLCDGDDDCGDGSDETGCSAPASEPPGSLCPAGQFRCENGRCLPPPWRCDGVNDCEDNSDEAGCGDSHILPFSTPGPSTCPANEFQCRNSSTCIPRRWLCDGDDDCGDGSDETGCSAPASEPPGSL
Turning to B3, in the assay with human IgE [2], the ka is 1.7 × 10^4 and the kd was 2.6 × 10^−3.

B4: IgE-1.23x1: IgE-binding multimer built from the heterodimer clones (protein)
chain: CPAGQFRCENGRCLPPPWRCDGVNDCEDNSDEAGCGDSHILPFSTPGPSTCPANEFQCRNSSTCIPRRWLCDGDDDCGDGSDETGCSAPASEPPGSLCQPDQFRCSSGRCLSREWLCDGEDDCEDDSDETDCPTRT
As to B4, in the assay with human IgE [2], the Kd – broadly, the equilibrium constant for the complex coming apart – stood at 71 nM; the ka was 5.2 × 10^4; the kd is recorded as 3.7 × 10^−3.
